Counter-ions that a name gives are not always drawn. ± gives the standard deviation of the averaged measurements. The list shows a part of the results.

The first test concerns murine small intestinal organoids (ENR+CD Paneth differentiation). As to the kind of experiment: carbachol-stimulated secreted lysozyme activity relative to plate median (log10 fold change); higher = more Paneth cell lysozyme secretion. Particulars: 0.4 µM; 6 d; carbachol 10 µM.
Turning to `NC(=O)c1ncn([C@@H]2O[C@H](CO)[C@@H](O)[C@H]2O)c1N` [Acadesine], the “carbachol-stimulated secreted lysozyme activity (log10)” value is -0.00214 ± 0.019.

In the case of `O=C(O)Cc1cccc(OCCCN(Cc2cccc(C(F)(F)F)c2Cl)CC(c2ccccc2)c2ccccc2)c1`, the “carbachol-stimulated secreted lysozyme activity (log10)” value is 0.0935 ± 0.21.

Regarding `CNC(=C[N+](=O)[O-])NCCSCc1ccc(CN(C)C)o1` [Ranitidine], the “carbachol-stimulated secreted lysozyme activity (log10)” value was -0.0451 ± 0.044.

For the molecule `O=C(NOC[C@H](O)CO)c1ccc(F)c(F)c1Nc1ccc(I)cc1F`, the “carbachol-stimulated secreted lysozyme activity (log10)” value is -0.294 ± 0.011.

With `COc1ccc2cccc(CCNC(C)=O)c2c1` [Agomelatine], the “carbachol-stimulated secreted lysozyme activity (log10)” value stood at 0.147 ± 0.18.

For `CNC(=O)c1cc(Oc2ccc(NC(=O)Nc3cc(C(C)(C)C)nn3-c3ccc4ncccc4c3)c(F)c2)ccn1` [DCC-2036 (Rebastinib)], the “carbachol-stimulated secreted lysozyme activity (log10)” value turned out to be 0.204 ± 0.026.

With `CCN(CC)CC(=O)Nc1c(C)cccc1C` [Lidocaine], the “carbachol-stimulated secreted lysozyme activity (log10)” value stood at 0.0155 ± 0.0072.

The test is the same for the next values; noted with them: 2 µM; 6 d; carbachol 10 µM.
As to `CC(NC(=O)C(O)c1cc(F)cc(F)c1)C(=O)NC1C(=O)N(C)c2ccccc2-c2ccccc21` (centres undefined), the “carbachol-stimulated secreted lysozyme activity (log10)” value was -0.061 ± 0.056.

For `O=C(NCc1cccc(O)c1)Nc1nc(-c2ccncc2)cs1`, the “carbachol-stimulated secreted lysozyme activity (log10)” value came to 0.0319 ± 0.15.

Consider `COc1cc2nc(N3CCN(C(=O)C4COc5ccccc5O4)CC3)nc(N)c2cc1OC` (centres undefined) [Doxazosin Mesylate], for which the “carbachol-stimulated secreted lysozyme activity (log10)” value came to 0.0297 ± 0.0078.

For the molecule `CC(C)Oc1ccc(-c2cnc3c(-c4ccnc5ccccc45)cnn3c2)cc1`, the “carbachol-stimulated secreted lysozyme activity (log10)” value is 0.11 ± 0.076.

In the case of `CCc1nc(N)nc(N)c1-c1ccc(Cl)cc1` [Pyrimethamine], the “carbachol-stimulated secreted lysozyme activity (log10)” value was 0.0343 ± 0.19.

As for `CS(=O)(=O)N1CCN(Cc2cc3nc(-c4cccc5[nH]ncc45)nc(N4CCOCC4)c3s2)CC1`, the “carbachol-stimulated secreted lysozyme activity (log10)” value was -0.292 ± 0.015.

As to `Cc1ccc(S(=O)(=O)n2c(N)nc3ccccc32)cc1` [ML130 (Nodinitib-1)], the “carbachol-stimulated secreted lysozyme activity (log10)” value was 0.0728 ± 0.038.

As for `C=CC(=O)Nc1cccc(Nc2nc(Nc3ccc(OCCOC)cc3)ncc2F)c1`, the “carbachol-stimulated secreted lysozyme activity (log10)” value was -0.266 ± 0.17.

As to `CC(C)C[C@H](NC(=O)[C@H](Cc1ccccc1)NC(=O)c1cnccn1)B(O)O` [Bortezomib (PS-341)], the “carbachol-stimulated secreted lysozyme activity (log10)” value was -0.304 ± 0.0052.

In the case of `CC(C)(C)c1cc(NC(=O)Nc2ccc(-c3cn4c(n3)sc3cc(OCCN5CCOCC5)ccc34)cc2)no1` [Quizartinib (AC220)], the “carbachol-stimulated secreted lysozyme activity (log10)” value was -0.072 ± 0.12.

As to `O=C(/C=C/n1cnc(-c2cc(C(F)(F)F)cc(C(F)(F)F)c2)n1)N1CC(F)(F)C1`, the “carbachol-stimulated secreted lysozyme activity (log10)” value is -0.415 ± 0.037.

As for `Cn1cc(/C=C2\C(=O)Nc3cccnc32)c2ccccc21`, the “carbachol-stimulated secreted lysozyme activity (log10)” value amounted to 0.145 ± 0.012.

`N#CC1(c2ccc(NC(=O)c3cccnc3NCc3ccncc3)cc2)CCCC1` [Apatinib]: the “carbachol-stimulated secreted lysozyme activity (log10)” value turned out to be 0.122 ± 0.16.

For `NC(=O)c1cccc(-c2cccc(OC(=O)NC3CCCCC3)c2)c1`, the “carbachol-stimulated secreted lysozyme activity (log10)” value is 0.0597 ± 0.069.

On to `COc1ccc(COc2ccc(Cc3cnc(N)nc3N)cc2OC)cc1`, for which the “carbachol-stimulated secreted lysozyme activity (log10)” value was -0.0406 ± 0.012.

For the molecule `Cc1ccc(S(=O)(=O)OCC(=O)Nc2ccc(C(=O)O)c(O)c2)cc1`, the “carbachol-stimulated secreted lysozyme activity (log10)” value amounted to 0.0373 ± 0.2.

As for `CCN(c1cc(-c2ccc(CN3CCOCC3)cc2)cc(C(=O)NCc2c(C)cc(C)[nH]c2=O)c1C)C1CCOCC1`, the “carbachol-stimulated secreted lysozyme activity (log10)” value was 0.0409 ± 0.054.

`NC(=O)Nc1cc(-c2cccc(F)c2)sc1C(=O)N[C@H]1CCCNC1`: the “carbachol-stimulated secreted lysozyme activity (log10)” value is -0.4357 ± 0.0027.

As for `COc1ccc(CNCc2cccc3ccccc23)cc1`, the “carbachol-stimulated secreted lysozyme activity (log10)” value was found to be 0.116 ± 0.21.

`CC(C)CCNC(=O)[C@H](CC(C)C)NC(=O)[C@H]1O[C@@H]1C(=O)O` [Loxistatin Acid (E-64C)]: the “carbachol-stimulated secreted lysozyme activity (log10)” value is -0.052 ± 0.0049.

For `O=C(O)c1cccc(-c2noc(-c3ccccc3F)n2)c1` [Ataluren (PTC124)], the “carbachol-stimulated secreted lysozyme activity (log10)” value came to 0.0895 ± 0.23.

Regarding `CN(Cc1cnc2nc(N)nc(N)c2n1)c1ccc(C(=O)N[C@@H](CCC(=O)O)C(=O)O)cc1` [Methotrexate], the “carbachol-stimulated secreted lysozyme activity (log10)” value was -0.25 ± 0.0079.

Regarding `CN1C2CCCC1CC(NC(=O)c1nn(C)c3ccccc13)C2` (centres undefined) [Granisetron HCl], the “carbachol-stimulated secreted lysozyme activity (log10)” value was -0.0307 ± 0.033.

Turning to `COc1cc(Br)c(Nc2nc(-c3c(C)nc4ncccn34)cs2)c(Br)c1`, the “carbachol-stimulated secreted lysozyme activity (log10)” value is -0.154 ± 0.27.

With `CN[C@@H](C)C(=O)N[C@H](C(=O)N1CCC[C@H]1C(=O)Nc1snnc1-c1ccccc1)C1CCCCC1`, the “carbachol-stimulated secreted lysozyme activity (log10)” value is -0.0683 ± 0.031.

Regarding `O=C1CC(=O)c2c(Cl)c(Cl)c(Cl)c(Cl)c21`, the “carbachol-stimulated secreted lysozyme activity (log10)” value was -0.0978 ± 0.087.

On to `COc1cc2c(cc1Cc1cccc(Cl)c1F)c(=O)c(C(=O)O)cn2[C@H](CO)C(C)C` [Elvitegravir (GS-9137, JTK-303)], for which the “carbachol-stimulated secreted lysozyme activity (log10)” value was -0.16 ± 0.056.

On to `O=[N+]([O-])c1ccc2c(c1)S(=O)(=O)C=C2` [Stattic], for which the “carbachol-stimulated secreted lysozyme activity (log10)” value was 0.029 ± 0.13.

Take `CC(C)(C)c1cc(/C=C(\C#N)C(N)=S)cc(C(C)(C)C)c1O` [Tyrphostin AG 879]: the “carbachol-stimulated secreted lysozyme activity (log10)” value worked out at 0.129 ± 0.19.

With `CN1CCC[C@@H]1CCO[C@](C)(c1ccccc1)c1ccc(Cl)cc1` [Clemastine Fumarate], the “carbachol-stimulated secreted lysozyme activity (log10)” value is -0.0718 ± 0.063.

On to `NC(=O)c1ncn([C@@H]2O[C@H](CO)[C@@H](O)[C@H]2O)c1N` [Acadesine], for which the “carbachol-stimulated secreted lysozyme activity (log10)” value stood at 0.116 ± 0.098.

Take `O=C(O)Cc1cccc(OCCCN(Cc2cccc(C(F)(F)F)c2Cl)CC(c2ccccc2)c2ccccc2)c1`: the “carbachol-stimulated secreted lysozyme activity (log10)” value was determined as 0.237 ± 0.047.

Values taken from the supplement of paper PMC9046079.
